# Experimental data from the supplement of paper PMC8728848.
# This is one part of the list.
# Tests used:
# Assay in all cases: glycan array binding signal (z-score within array); higher = stronger binding
# Conditions in all cases: glycan notation: IUPAC condensed, linker removed
# [1] = target: GlcNAc(b1-3)Gal(b1-4)GlcNAc(b1-3)GalNAc
# Outline: (§1)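 Glycan array data came from 3228 arrays in the Consortium for Functional Glycomics database, and only arrays with an available protein sequence were kept. Glycan names were put into IUPAC-condensed notation, and columns mapping to the same glycan were averaged. The binding signal is a within-array Z-score, averaged across arrays of one protein sequence run at different concentrations or buffers and across linkers. A negative Z-score can be read as non-binding.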
# [2] = target: GlcNAc(b1-3)Gal(b1-4)GlcNAc(b1-3)[GlcNAc(b1-3)Gal(b1-4)GlcNAc(b1-3)]GalNAc
# Outline: as §1
# [3] = target: GlcNAc(b1-3)Gal(b1-4)GlcNAc(b1-6)[Gal(b1-3)]GalNAc
# Outline: as §1
# [4] = target: GlcNAc(b1-3)Gal(b1-4)GlcNAc(b1-6)[GlcNAc(b1-3)Gal(b1-3)]GalNAc
# Outline: as §1
# [5] = target: GlcNAc(b1-3)Gal(b1-4)GlcNAc(b1-6)[GlcNAc(b1-3)]Gal(b1-4)GlcNAc
# Outline: as §1
# [6] = target: GlcNAc(b1-3)GalNAc
# Outline: as §1
# [7] = target: GlcNAc(b1-3)Man
# Outline: as §1
# [8] = target: GlcNAc(b1-3)[GlcNAc(b1-4)][GlcNAc(b1-6)]GlcNAc
# Outline: as §1
# [9] = target: GlcNAc(b1-3)[GlcNAc(b1-6)]Gal(b1-4)GlcNAc
# Outline: as §1
# [10] = target: GlcNAc(b1-3)[GlcNAc(b1-6)]GalNAc
# Outline: as §1
# [11] = target: GlcNAc(b1-4)Gal(b1-4)GlcNAc
# Outline: as §1
# [12] = target: GlcNAc(b1-4)GlcNAc
# Outline: as §1
# [13] = target: GlcNAc(b1-4)GlcNAc(b1-4)GlcNAc
# Outline: as §1
# [14] = target: GlcNAc(b1-4)GlcNAc(b1-4)GlcNAc(b1-4)GlcNAc(b1-4)GlcNAc
# Outline: as §1
# [15] = target: GlcNAc(b1-4)GlcNAc(b1-4)GlcNAc(b1-4)GlcNAc(b1-4)GlcNAc(b1-4)GlcNAc
# Outline: as §1
# [16] = target: GlcNAc(b1-4)[GlcNAc(b1-6)]GalNAc
# Outline: as §1
# [17] = target: GlcNAc(b1-6)Gal(b1-4)GlcNAc
# Outline: as §1
# [18] = target: GlcNAc(b1-6)GalNAc
# Outline: as §1
# [19] = target: GlcNAc6S(b1-3)Gal(b1-4)GlcNAc
# Outline: as §1
# [20] = target: Kdn(a2-3)Gal(b1-3)GalNAc
# Outline: as §1
# [21] = target: Kdn(a2-3)Gal(b1-3)GlcNAc
# Outline: as §1
# [22] = target: Kdn(a2-3)Gal(b1-4)Glc
# Outline: as §1
# [23] = target: Kdn(a2-3)Gal(b1-4)GlcNAc
# Outline: as §1
# [24] = target: Kdn(a2-3)Gal(b1-4)[Fuc(a1-3)]GlcNAc
# Outline: as §1
# [25] = target: Kdn(a2-6)Gal(b1-4)GlcNAc
# Outline: as §1
# [26] = target: Man(a1-2)Man(a1-2)Man(a1-3)Man
# Outline: as §1
# [27] = target: Man(a1-2)Man(a1-2)Man(a1-6)[Man(a1-3)]Man
# Outline: as §1
# [28] = target: Man(a1-2)Man(a1-3)Man
# Outline: as §1
# [29] = target: Man(a1-2)Man(a1-3)[Man(a1-2)Man(a1-6)]Man
# Outline: as §1
# [30] = target: Man(a1-2)Man(a1-3)[Man(a1-2)Man(a1-6)]Man(a1-6)[Man(a1-2)Man(a1-2)Man(a1-3)]Man
# Outline: as §1
# [31] = target: Man(a1-2)Man(a1-3)[Man(a1-2)Man(a1-6)]Man(a1-6)[Man(a1-2)Man(a1-2)Man(a1-3)]Man(b1-4)GlcNAc(b1-4)GlcNAc
# Outline: as §1
# [32] = target: Man(a1-2)Man(a1-3)[Man(a1-6)]Man(a1-6)[Man(a1-2)Man(a1-3)]Man(b1-4)GlcNAc(b1-4)GlcNAc
# Outline: as §1
# [33] = target: Man(a1-2)Man(a1-6)[Man(a1-3)]Man(a1-6)[Man(a1-2)Man(a1-2)Man(a1-3)]Man
# Outline: as §1
# [34] = target: Man(a1-2)Man(a1-6)[Man(a1-3)]Man(a1-6)[Man(a1-2)Man(a1-2)Man(a1-3)]Man(b1-4)GlcNAc(b1-4)GlcNAc
# Outline: as §1
# [35] = target: Man(a1-3)[Man(a1-6)]Man
# Outline: as §1
# [36] = target: Man(a1-3)[Man(a1-6)]Man(a1-6)[Man(a1-2)Man(a1-3)]Man(b1-4)GlcNAc(b1-4)GlcNAc
# Outline: as §1
# [37] = target: Man(a1-3)[Man(a1-6)]Man(a1-6)[Man(a1-3)]Man
# Outline: as §1
# [38] = target: Man(a1-3)[Man(a1-6)]Man(a1-6)[Man(a1-3)]Man(b1-4)GlcNAc(b1-4)GlcNAc
# Outline: as §1
# [39] = target: Man(a1-3)[Man(a1-6)]Man(b1-4)GlcNAc(b1-4)GlcNAc
# Outline: as §1
# [40] = target: Man(a1-3)[Man(a1-6)]Man(b1-4)GlcNAc(b1-4)[Fuc(a1-6)]GlcNAc
# Outline: as §1
# [41] = target: Man(a1-6)Man
# Outline: as §1
# [42] = target: Man(b1-4)GlcNAc
# Outline: as §1
# [43] = target: MurNAc(b1-4)GlcNAc
# Outline: as §1
# [44] = target: Neu5Ac(a2-3)Gal
# Outline: as §1
# [45] = target: Neu5Ac(a2-3)Gal(b1-3)GalNAc
# Outline: as §1
# [46] = target: Neu5Ac(a2-3)Gal(b1-3)GalNAc(b1-3)Gal(a1-4)Gal(b1-4)Glc
# Outline: as §1
# [47] = target: Neu5Ac(a2-3)Gal(b1-3)GalNAc(b1-4)[Neu5Ac(a2-3)]Gal(b1-4)Glc
# Outline: as §1
# [48] = target: Neu5Ac(a2-3)Gal(b1-3)GalNAc(b1-4)[Neu5Ac(a2-8)Neu5Ac(a2-3)]Gal(b1-4)Glc
# Outline: as §1
# [49] = target: Neu5Ac(a2-3)Gal(b1-3)GalNAc6S
# Outline: as §1
# [50] = target: Neu5Ac(a2-3)Gal(b1-3)GlcNAc
# Outline: as §1
# [51] = target: Neu5Ac(a2-3)Gal(b1-3)GlcNAc(b1-2)Man
# Outline: as §1
# [52] = target: Neu5Ac(a2-3)Gal(b1-3)GlcNAc(b1-2)Man(a1-3)[GlcNAc(b1-4)][Neu5Ac(a2-3)Gal(b1-3)GlcNAc(b1-2)Man(a1-6)]Man(b1-4)GlcNAc(b1-4)GlcNAc
# Outline: as §1
# [53] = target: Neu5Ac(a2-3)Gal(b1-3)GlcNAc(b1-2)Man(a1-3)[Neu5Ac(a2-3)Gal(b1-3)GlcNAc(b1-2)Man(a1-6)]Man(b1-4)GlcNAc(b1-4)GlcNAc
# Outline: as §1
# [54] = target: Neu5Ac(a2-3)Gal(b1-3)GlcNAc(b1-3)Gal(b1-3)GlcNAc
# Outline: as §1
# [55] = target: Neu5Ac(a2-3)Gal(b1-3)GlcNAc(b1-3)Gal(b1-4)GlcNAc
# Outline: as §1
# [56] = target: Neu5Ac(a2-3)Gal(b1-3)GlcNAc(b1-3)GalNAc
# Outline: as §1
# [57] = target: Neu5Ac(a2-3)Gal(b1-3)GlcNAc(b1-4)Gal(b1-4)Glc
# Outline: as §1
# [58] = target: Neu5Ac(a2-3)Gal(b1-3)GlcNAc(b1-6)GalNAc
# Outline: as §1
# [59] = target: Neu5Ac(a2-3)Gal(b1-3)GlcNAc6S
# Outline: as §1
# [60] = target: Neu5Ac(a2-3)Gal(b1-3)[Fuc(a1-4)]GlcNAc
# Outline: as §1
binder,measurement,setting,value
Pbx2 (Cryptococcus neoformans) (protein) AVSPLPSSTELVFYSQKRRRRRICSTATGSLSTPDPTRMTSDPYKRVGMRFSSVPRLLITFLSLLLLVSAAPPCVRFADYDSINQMFIDGGPGTKVLLCPNRLYRLSGPIIFTAADQEIATYGYPTGSERAVLRVEGRNTATAIQGDCRRCARVSVKNLVVDGNRKKLGRMRDFQLATGLVVLGGNEGQSIQNSWIKNPRGFTAIHIREGDKLQCSGARVEKNEIGPVGEEYDPEKDGDDPEMSPLGRPLADGVSIACRDSFIRDNTFRDNTDAAIVVYCSPGTLIHANHIFAQSLSAMAGILMVDSTPFNGDYTGTVVRSNIIDAVSRTIRVGIGIGPTVWSDDTETILTGGSVIGNGLKGRYMGYGIAAAGLKQWTIKDNWDEAKHEGRKSARCFDEPVNPDPIGLLYNRPTMEDCTVQSGFADHDFQYLVCIDGLYDKTNPPKHDPAPLAHDPSPTNAQEDNTVQQDGGDSKSKSIEQPREASDIEAEPSVEKMFSTGSEMMDDVLEHSHQRMHEVIDHLSRRIDILGAASAGKGSGDSKISEVLDPAMSSHLEKLQRKIEHLEFSLRSQIETAIQLRSAIQGWDQEMALVTDWEYDILLDVRHKLELSSYPHDQPLDPRLMRGQSYLNNEAVLVDDHSHPSLEGENLRAMSDRARLNANEEA,glycan array binding signal (z-score),[1],-0.709
same,glycan array binding signal (z-score),[2],-0.643
same,glycan array binding signal (z-score),[3],-0.249
same,glycan array binding signal (z-score),[4],-0.096
same,glycan array binding signal (z-score),[5],-0.05
same,glycan array binding signal (z-score),[6],-0.396
same,glycan array binding signal (z-score),[7],0.03
same,glycan array binding signal (z-score),[8],-0.476
same,glycan array binding signal (z-score),[9],-0.35
same,glycan array binding signal (z-score),[10],-0.416
same,glycan array binding signal (z-score),[11],-0.557
same,glycan array binding signal (z-score),[12],-0.445
same,glycan array binding signal (z-score),[13],-0.147
same,glycan array binding signal (z-score),[14],0.362
same,glycan array binding signal (z-score),[15],-0.054
same,glycan array binding signal (z-score),[16],-0.648
same,glycan array binding signal (z-score),[17],-0.551
same,glycan array binding signal (z-score),[18],-0.251
same,glycan array binding signal (z-score),[19],-0.104
same,glycan array binding signal (z-score),[20],-0.435
same,glycan array binding signal (z-score),[21],-0.211
same,glycan array binding signal (z-score),[22],0.08
same,glycan array binding signal (z-score),[23],-0.613
same,glycan array binding signal (z-score),[24],-0.169
same,glycan array binding signal (z-score),[25],-0.348
same,glycan array binding signal (z-score),[26],-0.572
same,glycan array binding signal (z-score),[27],-0.287
same,glycan array binding signal (z-score),[28],-0.508
same,glycan array binding signal (z-score),[29],-0.442
same,glycan array binding signal (z-score),[30],-0.111
same,glycan array binding signal (z-score),[31],0.647
same,glycan array binding signal (z-score),[32],-0.065
same,glycan array binding signal (z-score),[33],-0.127
same,glycan array binding signal (z-score),[34],0.275
same,glycan array binding signal (z-score),[35],-0.245
same,glycan array binding signal (z-score),[36],-0.295
same,glycan array binding signal (z-score),[37],-0.272
same,glycan array binding signal (z-score),[38],-0.311
same,glycan array binding signal (z-score),[39],-0.346
same,glycan array binding signal (z-score),[40],-0.483
same,glycan array binding signal (z-score),[41],-0.516
same,glycan array binding signal (z-score),[42],-0.543
same,glycan array binding signal (z-score),[43],-0.207
same,glycan array binding signal (z-score),[44],-0.406
same,glycan array binding signal (z-score),[45],-0.047
same,glycan array binding signal (z-score),[46],-0.324
same,glycan array binding signal (z-score),[47],-0.064
same,glycan array binding signal (z-score),[48],0.088
same,glycan array binding signal (z-score),[49],-0.335
same,glycan array binding signal (z-score),[50],-0.585
same,glycan array binding signal (z-score),[51],1.16
same,glycan array binding signal (z-score),[52],0.343
same,glycan array binding signal (z-score),[53],2.41
same,glycan array binding signal (z-score),[54],-0.518
same,glycan array binding signal (z-score),[55],-0.071
same,glycan array binding signal (z-score),[56],-0.35
same,glycan array binding signal (z-score),[57],0.372
same,glycan array binding signal (z-score),[58],-0.532
same,glycan array binding signal (z-score),[59],-0.196
same,glycan array binding signal (z-score),[60],-0.525
